Data from PubChem BioAssay AID504832 (National Center for Advancing Translational Sciences (NCATS), 2011).
The whole screen tested about 310,000 compounds, of which about 18,000 (5.8%) were called active. Inconclusive results, whose numbers are uncertain, are shown with a selection of clear calls. Calls follow the shape of the dose curve; as a rule, active = well fitted inhibition curve with a large enough effect; inconclusive = small, poorly fitted or top-dose-only effect, or another doubt; inactive = no such curve, though single readings can be large or run the other way. Potencies of inconclusive entries are left out as doubtful fits.

Experiment: Primary qHTS for delayed death inhibitors of the malarial parasite plastid, 48 hour incubation
Conditions: P. falciparum luciferase growth in erythrocytes; series mostly up to 28.7 µM
How it was run: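 A one-generation exposure of luciferase-tagged malaria parasites in RPMI 1640/Albumax erythrocyte culture, 37 C and 5% CO2. Inhibition is inferred from decreased luminescence after adding detection reagent.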
Potency is read from the fitted curve at half-maximal effect; tags tell the direction and shape of the fitted curve.

SMILES | Potency
O=C(C1CCN(S(=O)(=O)c2ccc(F)cc2)CC1)N1CC=C(c2ccccc2)CC1 | active: 10.4 µM
NC(=S)n1[nH]c(-c2ccc([N+](=O)[O-])cc2)c(N=Nc2cccc(Cl)c2)c1=O | inconclusive [inhibitor, single point]
N=c1n(Cc2ccccc2Cl)c2ccccc2n1CC(O)c1ccco1 (stereo not drawn) | inconclusive [inhibitor, single point]
COC(=O)C(NC(=O)c1ccc(F)cc1)(Nc1ncc(S(=O)(=O)c2ccc([N+](=O)[O-])cc2)s1)C(F)(F)F (stereo not drawn) | inconclusive [inhibitor, partial curve]
COc1ccc2nc(Nc3nc(CSc4nnc(C)s4)cc(=O)[nH]3)nc(C)c2c1 | inconclusive [inhibitor, partial curve, poor fit]
Cc1ccc(SCC(=O)O/N=C(\N)c2ccc([N+](=O)[O-])cc2)cc1 | inactive
CCOc1ccc(NC(=O)Nc2cc(OCC(F)(F)F)cc(OCC(F)(F)F)c2)cc1 | active: 0.828 µM
O=C1N(c2ccccc2C(F)(F)F)OC1(Cc1ccccc1)c1ccccc1 (stereo not drawn) | active: 1.04 µM
CCOC(=O)c1[nH]c(C)c(C(=O)NCCc2ccc(OC)cc2)c1C | inconclusive [inhibitor, partial curve]
Cc1ccnc(NS(=O)(=O)c2ccc(NS(C)(=O)=O)cc2)n1 | inconclusive [inhibitor, full curve]
CCC(Sc1nc2ncnc(N)c2[nH]1)C(=O)O (stereo not drawn) | inactive
COCC(=O)N/N=C\c1cccc(OC)c1OC/C=C/c1ccccc1 | inconclusive [inhibitor, partial curve]
Cc1onc(-c2c(F)cccc2Cl)c1C(=O)NCCc1ccncc1 | inconclusive [inhibitor, single point]
OC(CNCCNc1ncccc1C(F)(F)F)Cn1ccc2ccccc21 (stereo not drawn) | active: 1.47 µM
O=C(Nc1ccccc1C(=O)NC1CCCCC1)c1ccccc1 | inconclusive [inhibitor, single point]
COc1cccc(=O)c2c(C)n(-c3cc(C)cc(C)c3)c(C)c12 | active: 3.29 µM
COc1ccc(N(CC(=O)N2CCCCCC2)S(=O)(=O)c2ccccc2[N+](=O)[O-])c(OC)c1 | active: 11.7 µM
CC1CCCCN1C(=O)Nc1cccc(C(F)(F)F)c1 (stereo not drawn) | inconclusive [inhibitor, partial curve]
CCN(CC)C(=O)CC(c1ccc(N(C)C)cc1)c1c(OC)cc(OC)c2c(-c3ccccc3)cc(=O)oc12 (stereo not drawn) | active: 3.7 µM
COc1ccc(OC)c(-c2nc(C(=O)NCC3CCCO3)cc3c2[nH]c2ccccc23)c1 (stereo not drawn) | inconclusive [inhibitor, full curve, poor fit]
COc1ccc(S(=O)(=O)N/N=C\c2ccc3c(c2)OCO3)c(OC)c1 | inconclusive [inhibitor, partial curve, poor fit]
CCC(=O)N(CCc1ccccc1)Cc1cc2cc(OC)ccc2[nH]c1=O | active: 2.08 µM

SMILES | Potency
COc1ccc(CNC(=O)COc2ccccc2C(=O)c2cnn(-c3ccccc3)c2)cc1OC | inactive
Cc1cc(C(=O)CSc2nncs2)c(C)n1-c1ccc2c(c1)OCO2 | inconclusive [inhibitor, single point]
O=C(NCCc1ccccc1F)C1CCCN(c2nc3ccccc3s2)C1 (stereo not drawn) | inactive
CC(=O)c1c(C)[nH]c(C(=O)OCC(=O)Nc2cccc(S(=O)(=O)N(C)C)c2)c1C | inconclusive [inhibitor, partial curve]
O=C(CN1CCN(S(=O)(=O)c2ccccc2C(F)(F)F)CC1)NCc1cccs1 | inconclusive [inhibitor, single point]
O=S1(=O)N=C(N/N=C/c2cccs2)c2ccccc21 | inconclusive [inhibitor, single point]
COc1cccc(N2C(=O)C3CCCN3C2c2ccc(F)cc2)c1 (stereo not drawn) | active: 10.4 µM
CC1(C)CC2(CCO1)C(Nc1ccccc1)=NC(=S)N2c1ccccc1 (stereo not drawn) | inconclusive [inhibitor, partial curve, poor fit]
CCCCN(CC)CCCNC(=S)Nc1ccc2nc(N3CCN(CC)CC3)cc(C)c2c1 | active: 2.94 µM
O=S(=O)(c1ccccc1)c1nc(Nc2ccccc2N2CCOCC2)sc1Cl | inconclusive [inhibitor, single point]
CCN1CCN(C(=O)C(=O)c2c(C)[nH]c3ccccc23)CC1 | inconclusive [inhibitor, full curve, poor fit]
CC1(C)NC(=O)N(CC(O)Cn2c3ccccc3c3ccccc32)C1=O (stereo not drawn) | inconclusive [inhibitor, single point]
CC(=O)C1=C(C)NC(=O)CC1c1ccccc1Cl (stereo not drawn) | inconclusive [inhibitor, full curve, poor fit]
COc1ccccc1OCC(=O)N/N=C/c1c(O)ccc2ccccc12 | active: 2.62 µM
Cc1ccccc1NC(=O)Cc1nc(COC(=O)/C=C/c2ccccc2)cs1 | inconclusive [inhibitor, partial curve, poor fit]
COc1ccc([N+](=O)[O-])cc1NC(=O)c1ccc(Br)s1 | inactive
CC(C)CCOP(=O)(c1ccc(N(C)C)cc1)C(O)c1ccccc1 (stereo not drawn) | inconclusive [inhibitor, partial curve]
CCC(=O)N1CCc2cc(Br)cc(S(=O)(=O)N3CCC(C(=O)NC(C)(C)C)CC3)c21 | inconclusive [inhibitor, partial curve, poor fit]
COc1cc(/C=N/NC(=O)CCC(=O)NCc2ccccc2)cc(OC)c1OC | inconclusive [inhibitor, single point]
CC(=O)c1ccc(S(=O)(=O)N2CCN(C(=O)/C=C/c3ccc4ccccc4n3)CC2)cc1 | active: 11.7 µM
CC1(NC(=S)Nc2ccccc2)CCS(=O)(=O)C1 (stereo not drawn) | inactive
